Results: PubChem BioAssay AID686978 (National Center for Advancing Translational Sciences (NCATS), 2013)
Screen size: about 420,000 compounds; about 64,000 (15%) were called active. The inconclusive results got no clear call from the source; some entries with a clear call stand among them for comparison. The call rests on the fitted dose curve; in most records, active means well fitted inhibition curve with a large enough effect; inconclusive means small, poorly fitted or top-dose-only effect; inactive means flat fitted curve, though single readings scatter. Potencies of inconclusive entries are left out as doubtful fits.
On the % scale 0 is the no-effect control and ±100 the full control effect; potency means the concentration at half of the fitted maximal effect; tags describe the fitted curve by direction and shape.

Assay: qHTS for Inhibitors of human tyrosyl-DNA phosphodiesterase 1 (TDP1): qHTS in cells in absence of CPT; further: nearly all actives have a fitted effect of over 55% in size
Conditions: DT40 Tdp1-/- hTDP1 cells, no CPT, ATP luminescence, 48 h; activity change, negative = growth inhibition: at 46.2 µM (top of the series)
How it was run: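 Seeded 400 DT40-hTDP1 cells/well (vehicle DMSO, no 20 nM CPT); pinned compounds; ≥48 hr at 37 °C; CellTiter-Glo luminescence as viability measure.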
With `O=C(CS(=O)(=O)c1nc(-c2ccc(Cl)cc2)cn1-c1ccccc1)Nc1ccc(F)cc1F` the Potency was inconclusive [inhibitor, single point].
With `Cc1ccc2[nH]c(=O)c(CC(=O)O)c(-c3ccccc3)c2c1` the “activity change, negative = growth inhibition” value was inactive: 4.17%.
With `CCOC(=O)C1=C(c2ccccc2)N=c2sc(=Cc3cc(OC)c(OC)c(OC)c3)c(=O)n2C1c1cccs1` (configuration not stated) the Potency was active: 13 µM.
With `COc1ccc(NC(=O)CN(C)C(=O)CCSc2ccc(F)cc2)cc1` the Potency was inconclusive [inhibitor, partial curve].
For `CCOc1ccc2nc(NC(=O)C3CSC4(C)CCC(=O)N34)sc2c1` (configuration not stated), the Potency was inconclusive [inhibitor, single point].
For `C=CC[C@]12C[C@@H](OC)C(=O)C=C1O[C@@H](c1ccc(OC)c(OC)c1)[C@H]2C`, the Potency was inconclusive [inhibitor, single point].
In the case of `Cc1c(NC(=O)c2ccccc2)cccc1[N+](=O)[O-]`, the “activity change, negative = growth inhibition” value is reported as inactive: -8.74%.
For `CC(C)(C)S(=O)N1Cc2cc(CO)cc(-c3ccccc3)c2[C@@H]1CCO` (some centres not stated), the Potency was inconclusive [inhibitor, full curve, poor fit].
For `O=C(Nc1ccccc1)Nc1n[nH]c2nnc(-c3ccccc3)c(-c3ccccc3)c12`, the Potency was active: 16.4 µM.
For `Cc1ccc(Oc2nn[nH]n2)cc1`, the “activity change, negative = growth inhibition” value was inactive: -29.7%.
With `CCCn1c(SCC(=O)NC2CCCCC2C)n[nH]c1=O` (configuration not stated) the “activity change, negative = growth inhibition” value was inactive: -13.6%.
For `Cc1ccc(Sc2c(C#N)c(-c3ccccc3)nn2C)cc1`, the Potency was inconclusive [inhibitor, partial curve, poor fit].
For `O=C(NCc1ccccc1)c1cccc2c(-c3ccc(F)c(F)c3)coc12`, the Potency was inconclusive [inhibitor, single point].
In the case of `C[C@H]1C=C(C(=O)NC2CC2)O[C@@H](OCc2ccc(CO)cc2)C1`, the “activity change, negative = growth inhibition” value is reported as inactive: -14.9%.
In the case of `CN(C)c1ccc(/C=N/N2CCN(Cc3ccccc3Cl)CC2)cc1`, the “activity change, negative = growth inhibition” value is reported as inactive: -9.78%.
With `CN1CCC(=O)N([C@H](COc2ccccc2)Cc2ccccc2)CC1` the Potency was “inactive”.
With `COc1ccc(C#Cc2c(-c3ccccc3)n(-c3ccccc3)c3ccc(CO)cc23)cc1` the Potency was inconclusive [inhibitor, single point].
For `CC1CCN(c2ccc(S(=O)(=O)Nc3cc(C(=O)O)cc(C(=O)O)c3)cc2[N+](=O)[O-])CC1`, the “activity change, negative = growth inhibition” value was inactive: 4.27%.
With `O=C(Nc1nnc([C@@H]2C[C@H](O)[C@@H](CO)O2)s1)Nc1cccc(Cl)c1Cl` the “activity change, negative = growth inhibition” value was inactive: -1.4%.
For `O=c1c(-c2ccccc2)nc2ccccc2n1C(c1ccccn1)c1nc2ccccc2[nH]1` (configuration not stated), the Potency was active: 9.2 µM.
For `CCC(C(=O)NC1CCCC1)n1c(-c2cc3ccccc3[nH]2)nc2ccccc21` (configuration not stated), the Potency was inconclusive [inhibitor, single point].
For `Cc1ccccc1CC1(CO)CCCN(Cc2ccc3c(c2)OCCO3)C1` (configuration not stated), the Potency was inconclusive [inhibitor, single point].
For `O=C(CN1CCOCC1)NNC(=S)Nc1ccccc1`, the “activity change, negative = growth inhibition” value was inactive: 0.0098%.
For `O=S(=O)(Nc1cc(C(F)(F)F)ccc1N1CCOCC1)c1ccc2ccccc2c1`, the Potency was inconclusive [inhibitor, single point].
For `CCCCCCSc1ccc([C@H]2N[C@@](Cc3ccccc3)(C(=O)OC)[C@H]3C(=O)N(CC)C(=O)[C@@H]23)cc1`, the Potency was active: 18.4 µM.
For `CCC(=O)N(Cc1cc2ccc(C)cc2n2nnnc12)C1CCCCC1`, the Potency was inconclusive [inhibitor, partial curve].
With `Cc1cc(C)cc(N(CC(=O)Nc2ccccc2)C2=NC3CS(=O)(=O)CC3S2)c1` (configuration not stated) the Potency was inconclusive [inhibitor, single point].
In the case of `COc1ccc(/C=C/c2onc(C)c2S(=O)(=O)N2CCC(C(=O)N3CCCCC3)CC2)cc1`, the Potency is reported as inconclusive [inhibitor, single point].
With `CCn1cc(C(=O)O)c(=O)c2cc(F)c(N3CCN(S(=O)(=O)c4ccc(NC(C)=O)cc4)CC3)cc21` the Potency was inconclusive [inhibitor, single point].
In the case of `COc1ccc(S(=O)(=O)N2CCCCCC2)cc1C(=O)N(C)CC(=O)Nc1ccccc1C(F)(F)F`, the Potency is reported as inconclusive [inhibitor, single point].
For `COc1ccc(NC(=O)N(Cc2cc3ccc(OC)cc3[nH]c2=O)CC2CCCO2)cc1` (configuration not stated), the Potency was active: 13 µM.
In the case of `CCOC(=O)C1CCN(C(=O)COC(=O)c2cc(-c3cccs3)nn2-c2ccccc2)CC1`, the activity change, negative = growth inhibition is reported as inconclusive: -33.4% [inhibitor].
With `Cc1ccc(-c2cn(-c3ccc(OC(F)F)cc3)c3[n+]2CCCCC3)cc1` the Potency was active: 1.03 µM.
With `C=CCOc1ccc(/C=C2/C(=O)ON=C2C)cc1OC` the Potency was inconclusive [inhibitor, single point].
With `COc1ccc2c(c1)[C@]1(C[C@H](O)CO1)C(=O)N2C` the “activity change, negative = growth inhibition” value was inactive: 3.06%.
In the case of `COc1ccccc1C1NC(=O)NC(C)=C1C(=O)OCc1ccccc1` (configuration not stated), the Potency is reported as inconclusive [inhibitor, single point].
In the case of `CN(C)c1cccc2c1c(NC(=O)Nc1ccccc1)nn2C`, the Potency is reported as inconclusive [inhibitor, single point].
In the case of `Cc1ccc(C(=O)NCC(c2ccco2)N2CCc3ccccc3C2)cc1` (configuration not stated), the Potency is reported as inconclusive [inhibitor, single point].
With `NS(=O)(=O)c1ccc(CCNC(=S)NC2CCCC2)cc1` the Potency was inconclusive [inhibitor, single point].
In the case of `C=CCN1CC(=O)N2C(c3ccccc3)c3[nH]c4ccccc4c3C[C@H]2C1=O` (some centres not stated), the Potency is reported as active: 18.4 µM.
For `COc1ccc(NC(=O)CCCc2nnc3n(CCC(C)C)c(=O)c4sccc4n23)cc1Cl`, the Potency was active: 20.6 µM.
With `O=C(CCN1CCCC1Cc1ccccc1)c1ccc2c(c1)OCCO2` (configuration not stated) the Potency was active: 2.31 µM.
For `COc1ccc(Cl)cc1S(=O)(=O)NC(C)c1cnn(-c2ccccn2)c1C` (configuration not stated), the Potency was inconclusive [inhibitor, single point].
For `CN(C)c1ccc(/C=C(\C#N)c2ccccn2)cc1`, the Potency was active: 23.1 µM.
For `COc1ccc(NC(=O)c2cc(-c3cc(F)ccc3OC)n[nH]2)cn1`, the Potency was inconclusive [inhibitor, single point].
In the case of `COc1ccc(N2CCN(C(=O)COc3ccc4c(C)cc(=O)oc4c3)CC2)cc1`, the “activity change, negative = growth inhibition” value is reported as inactive: -28%.
For `Cc1cccc(/C(N)=N/OC(=O)c2ccoc2C)c1`, the Potency was inconclusive [inhibitor, single point].
For `Cc1ccc(-n2c(SCCC(C)C)nc3sc4c(c3c2=O)CC(C)(C)OC4)cc1`, the “activity change, negative = growth inhibition” value was inactive: -9.39%.
In the case of `CCOc1ccc(CNC(=O)C2CCN(C(=O)c3sccc3-n3cccc3)CC2)cc1`, the “activity change, negative = growth inhibition” value is reported as inactive: -23.6%.
In the case of `COc1ccc(-c2cc(C(C)=O)c(C)n2CCC(=O)NC2CCCCC2)cc1`, the Potency is reported as inconclusive [inhibitor, single point].
In the case of `Cc1ccc(S(=O)(=O)N2CCOCC2)cc1C(=O)Nc1ccc(-c2cn3ccsc3n2)cc1`, the Potency is reported as active: 11.2 µM.
With `CCOc1ccc(CNC(=O)CN2C(=O)C3CCCCN3c3ccc(C(=O)N4CCCC4)cc32)cc1` (configuration not stated) the Potency was inconclusive [inhibitor, single point].
With `CC(C)Oc1ccc(C(=O)N2CC(=O)Nc3ccc(F)cc3C2c2ccc(F)cc2)cc1` (configuration not stated) the Potency was inconclusive [inhibitor, single point].
With `CCN1CCN(c2c(Cl)cccc2NC(=O)c2ccco2)CC1` the Potency was inconclusive [inhibitor, partial curve, poor fit].
In the case of `CCC(=O)Nc1cc(C(F)(F)F)ccc1N1CCCC1`, the “activity change, negative = growth inhibition” value is reported as inactive: -2.98%.
For `OC(COc1ccc(C2C=CCC2)cc1)CN1CCCCC1` (configuration not stated), the Potency was inconclusive [inhibitor, single point].
In the case of `COc1cc(-n2c(=O)c3ccccc3n(Cc3ccccc3)c2=O)cc(OC)c1OC`, the “activity change, negative = growth inhibition” value is reported as inactive: -24%.
With `CCn1c(SCc2c(Cl)cccc2Cl)nc2nc3c(cc2c1=O)CCCC3` the Potency was inconclusive [inhibitor, single point].
For `O=S(=O)(CCNCCc1ccccc1)NC1CCCCC1`, the “activity change, negative = growth inhibition” value was inactive: -17.4%.
With `COc1ccc(NS(=O)(=O)c2ccc(-n3cnnn3)cc2)cc1OC` the Potency was active: 9.2 µM.
With `CN(CC(=O)Nc1ccccc1C(=O)N1CCCC1)S(=O)(=O)c1ccc(Br)cc1` the Potency was inconclusive [inhibitor, partial curve].
With `CC1(C)CC(NS(=O)(=O)c2ccc3ccccc3c2)CC(C)(C)N1` the “activity change, negative = growth inhibition” value was inactive: -6.92%.
With `COc1ccc(-c2noc(C3CCCN(S(=O)(=O)c4ccc(C)c(Cl)c4)C3)n2)cc1OC` (configuration not stated) the Potency was active: 20.6 µM.
In the case of `Cc1ccc(C(=O)N/N=C/c2ccc(-c3cccc(C(F)(F)F)c3)o2)cn1`, the Potency is reported as active: 2.59 µM.
With `CCN1C(=O)c2ccccc2Sc2ccc(C(=O)NCCC(C)C)cc21` the “activity change, negative = growth inhibition” value was inactive: -24%.
In the case of `CCCn1c2ccc(F)cc2c2nnc(SCCN3CCOCC3)nc21`, the Potency is reported as inconclusive [inhibitor, partial curve].
In the case of `O=C(Nc1nnc(-c2ccc3c(c2)CCCC3)o1)C1CCCCC1`, the Potency is reported as inconclusive [inhibitor, single point].
In the case of `CN(C)CCN(C(=O)c1ccc(S(=O)(=O)N(C)c2ccccc2)cc1)c1nc2ccc(Cl)cc2s1`, the “activity change, negative = growth inhibition” value is reported as inactive: -1.84%.
In the case of `Clc1ccc(-c2cnnc(-c3ccccn3)n2)cc1`, the Potency is reported as inconclusive [inhibitor, single point].
For `COc1cccc(-c2c(NC(=O)c3ccco3)oc3ccccc3c2=O)c1`, the “activity change, negative = growth inhibition” value was inactive: -22.1%.
With `CC1=C(C(=O)OC(C)(C)C)C(c2cccc3ccccc23)NC(=O)N1` (configuration not stated) the Potency was inconclusive [inhibitor, single point].
With `COc1ccccc1CN1CCC2(CC1)CCN(C(=O)c1ccncc1)CC2` the “activity change, negative = growth inhibition” value was inactive: 0.202%.
